From paper PMC9911399, “Two distinct binding modes provide the RNA-binding protein RbFox with extraordinary sequence specificity”
Numbering of substitutions follows the chain as printed; changes in the protein carry UniProt numbers. The list shows a part of the results.

B1: CCCGGCA (DNA:RNA)
RNA: GGGAGACCGGAAUUCAGAUUGUCCCCCGGCAUUAAAUCCCGUCGUAGCCACCA
DNA 1: CAATCTGAATTCCGGTCTCCC
DNA 2: TGGTGGCTACGACGGGATT
B2: CGCAACA (DNA:RNA)
RNA: B1 RNA with C26G, G28A, G29A
DNA 1: CAATCTGAATTCCGGTCTCCC
DNA 2: TGGTGGCTACGACGGGATT
B3: UCAUGUC (DNA:RNA)
RNA: B1 RNA with C25U, C27A, G28U, C30U, A31C
DNA 1: CAATCTGAATTCCGGTCTCCC
DNA 2: TGGTGGCTACGACGGGATT
B4: GGGUAAA (DNA:RNA)
RNA: B1 RNA with C25G, C26G, C27G, G28U, G29A, C30A
DNA 1: CAATCTGAATTCCGGTCTCCC
DNA 2: TGGTGGCTACGACGGGATT
B5: GCGAUCU (DNA:RNA)
RNA: B1 RNA with C25G, C27G, G28A, G29U, A31U
DNA 1: CAATCTGAATTCCGGTCTCCC
DNA 2: TGGTGGCTACGACGGGATT
B6: GGGGAUC (DNA:RNA)
RNA: B1 RNA with C25G, C26G, C27G, G29A, C30U, A31C
DNA 1: CAATCTGAATTCCGGTCTCCC
DNA 2: TGGTGGCTACGACGGGATT
B7: GGGCUGG (DNA:RNA)
RNA: GGGAGACCGGAAUUCAGAUUGUCCGGGCUGGUUAAAUCCCGUCGUAGCCACCA
DNA 1: CAATCTGAATTCCGGTCTCCC
DNA 2: TGGTGGCTACGACGGGATT
B8: GGCUAAG (DNA:RNA)
RNA: B7 RNA with G27C, C28U, U29A, G30A
DNA 1: CAATCTGAATTCCGGTCTCCC
DNA 2: TGGTGGCTACGACGGGATT
B9: GCCGGUA (DNA:RNA)
RNA: B1 RNA with C25G, C30U
DNA 1: CAATCTGAATTCCGGTCTCCC
DNA 2: TGGTGGCTACGACGGGATT
B10: CGCCGGG (DNA:RNA)
RNA: B7 RNA with G25C, G27C, U29G
DNA 1: CAATCTGAATTCCGGTCTCCC
DNA 2: TGGTGGCTACGACGGGATT
B11: ACCUGGG (DNA:RNA)
RNA: B1 RNA with C25A, G28U, C30G, A31G
DNA 1: CAATCTGAATTCCGGTCTCCC
DNA 2: TGGTGGCTACGACGGGATT
B12: UGUGUUC (DNA:RNA)
RNA: B7 RNA with G25U, G27U, C28G, G30U, G31C
DNA 1: CAATCTGAATTCCGGTCTCCC
DNA 2: TGGTGGCTACGACGGGATT
B13: CGUGUAA (DNA:RNA)
RNA: B1 RNA with C26G, C27U, G29U, C30A
DNA 1: CAATCTGAATTCCGGTCTCCC
DNA 2: TGGTGGCTACGACGGGATT
B14: GCGUUGC (DNA:RNA)
RNA: B7 RNA with G26C, C28U, G31C
DNA 1: CAATCTGAATTCCGGTCTCCC
DNA 2: TGGTGGCTACGACGGGATT
B15: GUUCCCU (DNA:RNA)
RNA: B7 RNA with G26U, G27U, U29C, G30C, G31U
DNA 1: CAATCTGAATTCCGGTCTCCC
DNA 2: TGGTGGCTACGACGGGATT
B16: UACAAAU (DNA:RNA)
RNA: B1 RNA with C25U, C26A, G28A, G29A, C30A, A31U
DNA 1: CAATCTGAATTCCGGTCTCCC
DNA 2: TGGTGGCTACGACGGGATT
B17: GCAUACC (DNA:RNA)
RNA: B1 RNA with C25G, C27A, G28U, G29A, A31C
DNA 1: CAATCTGAATTCCGGTCTCCC
DNA 2: TGGTGGCTACGACGGGATT
B18: CUGGUUU (DNA:RNA)
RNA: B1 RNA with C26U, C27G, G29U, C30U, A31U
DNA 1: CAATCTGAATTCCGGTCTCCC
DNA 2: TGGTGGCTACGACGGGATT
B19: AACCGGU (DNA:RNA)
RNA: B1 RNA with C25A, C26A, G28C, C30G, A31U
DNA 1: CAATCTGAATTCCGGTCTCCC
DNA 2: TGGTGGCTACGACGGGATT
B20: AGUAACC (DNA:RNA)
RNA: B1 RNA with C25A, C26G, C27U, G28A, G29A, A31C
DNA 1: CAATCTGAATTCCGGTCTCCC
DNA 2: TGGTGGCTACGACGGGATT

Each binder was assayed against T1, RBFOX1 RRM RbFoxmut (Fox-RRM*) (Homo sapiens, UniProt Q9NWB1 109-208, R118D;E147R;N151S;E152T) (assay: EMSA; HiTS-Eq, 1 nM pool, 10 min; buffer printed only for the single-RNA assays: 10 mM Tris pH 7.5, 150 mM NaCl, 3.4 mM EDTA, 0.001% NP-40, 30 C). Conditions: tags: His6 N-terminal (pET28a); label: 5' 32P.
T1 sequence: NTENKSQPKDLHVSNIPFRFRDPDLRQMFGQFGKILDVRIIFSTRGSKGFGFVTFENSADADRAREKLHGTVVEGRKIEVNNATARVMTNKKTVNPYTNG
Method in brief: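 Relative association constants, normalised to the cognate motif, were derived by comparing read counts of each RNA species with those of the control reaction. The RNA sequenced was the free fraction, separated by 8% native PAGE after a 10 min equilibration in 50 µL of 1 nM 5′-radiolabelled RNA (7 randomized nucleotides) with increasing concentrations of purified wild-type or mutant RbFox RRM.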
With B1 the binding signal was 0.129 KA relative to UGCAUGU. In the case of B2, the binding signal is reported as 0.102 KA relative to UGCAUGU. In the case of B3, the binding signal is reported as 0.199 KA relative to UGCAUGU. B4 was tested, and the binding signal was 0.103 KA relative to UGCAUGU. B5 was tested, and the binding signal was 0.0432 KA relative to UGCAUGU. In the case of B6, the binding signal is reported as 0.205 KA relative to UGCAUGU. With B7 the binding signal was 0.204 KA relative to UGCAUGU. With B8 the binding signal was 0.0824 KA relative to UGCAUGU. In the case of B9, the binding signal is reported as 0.0981 KA relative to UGCAUGU. In the case of B10, the binding signal is reported as 0.0766 KA relative to UGCAUGU. B11 was tested, and the binding signal was 0.0799 KA relative to UGCAUGU. For B12, the binding signal was 0.108 KA relative to UGCAUGU. B13 was tested, and the binding signal was 0.144 KA relative to UGCAUGU. In the case of B14, the binding signal is reported as 0.0929 KA relative to UGCAUGU. With B15 the binding signal was 0.0477 KA relative to UGCAUGU. For B16, the binding signal was 0.0515 KA relative to UGCAUGU. With B17 the binding signal was 0.0634 KA relative to UGCAUGU. For B18, the binding signal was 0.087 KA relative to UGCAUGU. For B19, the binding signal was 0.0772 KA relative to UGCAUGU. With B20 the binding signal was 0.0751 KA relative to UGCAUGU.
